Data published in ChEMBL document CHEMBL4888484, “Replenishing the malaria drug discovery pipeline: Screening and hit evaluation of the MMV Hit Generation Library 1 (HGL1) against asexual blood stage Plasmodium falciparum ,using a nano luciferase reporter read-out” (2022).
Hit rate of the full screen: of about 150,000 compounds, about 540 (0.36%) showed an effect of 50% or more. This is one part of the list.

The compounds below were run on Plasmodium falciparum (assay: Primary screen in NF54 nanoGlo assay, in single point, at 2uM, 72h; a lower Z score goes with more inhibition). Details: timepoint 72 hour.
Format: functional, Erythrocyte
For `Cc1ccc(C(=O)N2CCn3c(nnc3[C@@H]3C[C@@H](O)CN3C(C)C)C2)cn1`, the “% Inhibition” value was -11% and the Z score was 1.42.
In the case of `Cc1cc2cc[nH]c2cc1NC(=O)c1ccc(Cl)cn1`, the “% Inhibition” value is reported as -15% and the Z score is reported as 1.36.
With `Cn1c(CN2CC[C@@](O)(CN3CCCCC3)C2)nc2ccccc21` the “% Inhibition” value was 2% and the Z score was -0.33.
For `COc1ccc2[nH]c3c(c2c1)CCN1C(=O)N(C2CCCCC2)C(=O)[C@]31C`, the “% Inhibition” value was -43% and the Z score was 6.53.
`CCNc1ncc(S(=O)(=O)NCCCCO)cc1C(F)(F)F` was tested, and the “% Inhibition” value was -18% and the Z score was 1.78.
`CC(=O)Nc1nnc(CCNC(=O)c2ccccc2Cl)s1` was tested, and the “% Inhibition” value was -7% and the Z score was 1.29.
With `O=C(NCCc1ccc[nH]1)[C@H]1CC[C@H](Nc2cnccn2)CC1` the “% Inhibition” value was -11% and the Z score was 1.5.
In the case of `CC1=CCN(C(=O)c2cccc(S(=O)(=O)NCc3cc[nH]n3)c2)CC1`, the “% Inhibition” value is reported as -5% and the Z score is reported as 1.
`N/C(=N\O)C1CC(=O)N(C2CCc3ccccc32)C1` (stereo not given) was tested, and the “% Inhibition” value was -15% and the Z score was 1.73.
`O=C(NCCOCCN1C(=O)CCC1=O)OCc1ccccn1` was tested, and the “% Inhibition” value was 0% and the Z score was 0.09.
`CCCn1c(=O)[nH]c2c(C(=O)N(C)Cc3ccccc3)snc2c1=O` was tested, and the “% Inhibition” value was -10% and the Z score was 1.62.
For `CC(C)CCCNC(=O)N1CCOCC1`, the “% Inhibition” value was -2% and the Z score was 0.27.
`COCCNC(=O)C(=O)NCC[C@@H](CCO)c1ccccc1` was tested, and the “% Inhibition” value was 3% and the Z score was -0.38.
For `COc1ccc(CN2CC(=O)N3C(c4ccc(OC)cc4)c4[nH]c5ccccc5c4C[C@H]3C2=O)cc1` (stereo not given in full), the “% Inhibition” value was -8% and the Z score was 1.28.
With `CC1CCC2(CC1)OC[C@H](CNCc1c[nH]nc1-c1cccnc1)O2` (stereo not given in full) the “% Inhibition” value was -15% and the Z score was 1.85.
In the case of `O=C(NCC1CCCO1)N1CCC(C(O)C(F)(F)F)CC1` (stereo not given), the “% Inhibition” value is reported as -18% and the Z score is reported as 1.87.
`Cc1cc(C2CCC(C(=O)NCC3CC3)CN2C(=O)C2CCCC2)ccc1F` (stereo not given) was tested, and the “% Inhibition” value was -10% and the Z score was 1.15.
With `CCn1ccc(C(=O)N2CCC3(CC2)C[C@@H](N(C(=O)c2ccccc2)C2CC2)CCO3)n1` the “% Inhibition” value was -3% and the Z score was 0.42.
In the case of `CCCN1C(=O)CC[C@@H]2CN(C(=O)c3c[nH]c(=O)c(Cl)c3)CC[C@@H]21`, the “% Inhibition” value is reported as -17% and the Z score is reported as 2.92.
With `COCC1(C(=O)N(C)Cc2csc(-c3cccs3)n2)CCC1` the “% Inhibition” value was -14% and the Z score was 1.3.
`NS(=O)(=O)c1ccc(NC(=O)N(Cc2ccsc2)C2CCCC2)cc1` was tested, and the “% Inhibition” value was 0% and the Z score was 0.05.
For `O=C(Cc1cccs1)N1CC(n2nccn2)C1`, the “% Inhibition” value was -5% and the Z score was 0.81.
`Cc1ccc(-c2cn3ccn(-c4ccc(C)c(Cl)c4)c(=O)c3n2)cc1` was tested, and the “% Inhibition” value was -10% and the Z score was 1.31.
With `CN(Cc1ccc2nccnc2c1)C(=O)CCN1Cc2ccccc2O[C@H](c2ccccc2)C1` the “% Inhibition” value was 8% and the Z score was -1.1.
For `Cc1ccsc1C(=O)NCc1ccccn1`, the “% Inhibition” value was -7% and the Z score was 0.79.
In the case of `O=C(CNCCS(=O)(=O)N1CCCC1)NC1CCCCCCC1`, the “% Inhibition” value is reported as -17% and the Z score is reported as 3.31.
For `Cc1ccc(-n2cc(-c3ccccc3)nc2NC(=O)CN(C(=O)NC(C)(C)C)C2CC2)cc1C`, the “% Inhibition” value was 2% and the Z score was -0.24.
For `CCn1c(-c2cc(NC(=O)c3cnccn3)[nH]n2)cc2cc(OC)ccc21`, the “% Inhibition” value was 2% and the Z score was -0.18.
In the case of `COc1ccc(CC(=O)NC(N)=Nc2nc3ccccc3o2)cc1`, the “% Inhibition” value is reported as -1% and the Z score is reported as 0.14.
For `CCCN1C(=O)c2ccccc2N2C(=O)CC[C@@]12C(=O)Nc1cccc(NC(C)=O)c1`, the “% Inhibition” value was 8% and the Z score was -1.31.
`O=C(NCc1cnn(CC2CCC2)c1)[C@H]1OCC[C@H]1Cn1cccn1` was tested, and the “% Inhibition” value was -16% and the Z score was 1.97.
With `Cc1cc(-c2ccc(N3CCCC3)nn2)ccn1` the “% Inhibition” value was -7% and the Z score was 1.47.
For `O=C(Cc1ccc2[nH]ncc2c1)N1CCC2C(CCCN2Cc2ccccc2)C1` (stereo not given), the “% Inhibition” value was -3% and the Z score was 0.43.
`COc1ccc(C(=O)N2CC[C@@H]3CN(Cc4cccnc4)[C@@H]3C2)cc1F` was tested, and the “% Inhibition” value was -6% and the Z score was 0.76.
`Cc1cscc1C(=O)Nc1cccc(C(N)=O)n1` was tested, and the “% Inhibition” value was -9% and the Z score was 1.68.
With `CC(C)c1nocc1C(=O)N[C@H]1CCN(C2CCCCC2)C1` the “% Inhibition” value was -11% and the Z score was 1.64.
In the case of `CN1CCN(Cc2ccc(-c3ccoc3)nc2)CC1`, the “% Inhibition” value is reported as -9% and the Z score is reported as 1.48.
For `N#Cc1ccc(C(=O)N2CCC[C@H](Oc3cnccn3)C2)cc1`, the “% Inhibition” value was -16% and the Z score was 2.69.
With `COc1cccc(CNC(=O)N[C@@H]2C[C@H]2C2CCCCC2)n1` the “% Inhibition” value was -14% and the Z score was 2.31.
`Cc1cccc2c1OCC[C@@H]2NCc1cnn(C(C)C)c1` was tested, and the “% Inhibition” value was 0% and the Z score was 0.
With `Cc1n[nH]cc1CNCCN1CCCCCC1` the “% Inhibition” value was -10% and the Z score was 1.34.
With `Cc1ccc(Oc2ncccc2CNC(=O)CN2CCCN(C)CC2)c(F)c1F` the “% Inhibition” value was -3% and the Z score was 0.47.
`O=C(O)[C@H]1CCN(C(=O)c2sccc2C2CC2)C1` was tested, and the “% Inhibition” value was -5% and the Z score was 0.77.
With `Cc1noc(C)c1C(=O)NCCN1c2ccccc2N(C2CC2)S1(=O)=O` the “% Inhibition” value was -19% and the Z score was 2.96.
`CCN(Cc1nc(C)no1)C(=O)NC1(CN2CCCCC2)CCCCC1` was tested, and the “% Inhibition” value was 2% and the Z score was -0.42.
In the case of `O=C(Cn1cnc2c(-c3ccc(F)cc3)nsc2c1=O)Nc1ccc2c(c1)OCCO2`, the “% Inhibition” value is reported as -7% and the Z score is reported as 1.16.
For `O=C1CN(C(=O)c2cc(Br)cc3[nH]cnc23)CN1Cc1ccccc1`, the “% Inhibition” value was -4% and the Z score was 0.59.
With `CCC(=O)N1CCc2cc(Br)c(S(=O)(=O)CCC(=O)N3CCC[C@H](C)C3)cc21` the “% Inhibition” value was -17% and the Z score was 1.7.
For `O=C(c1ccc2ccccc2n1)N1CCN(c2cccc(Cl)c2)CC1`, the “% Inhibition” value was -8% and the Z score was 1.18.
For `O=C(c1ccncc1)N1CC[C@H](c2nnc(Cc3ccccc3)o2)C1`, the “% Inhibition” value was -16% and the Z score was 2.28.
`CCC(=O)N1CCc2cc(N3CCOCC3)ccc21` was tested, and the “% Inhibition” value was -11% and the Z score was 1.49.
`CN1CC(NC2CCc3ccccc3C2)CCC1=O` (stereo not given) was tested, and the “% Inhibition” value was 0% and the Z score was 0.01.
For `C[C@H]1CCc2c(sc(N3CCCC3=O)c2C#N)C1`, the “% Inhibition” value was -7% and the Z score was 0.98.
With `O=C(Cn1ncc2cccnc21)N1CCO[C@H](c2ccccc2)CC1` the “% Inhibition” value was -3% and the Z score was 0.37.
For `C=CC[C@]1(C(=O)O)CCCN(Cc2cnc(N(C)C)s2)C1`, the “% Inhibition” value was 0% and the Z score was -0.08.
`O=C(c1cc(Cl)c(Cl)[nH]1)N(Cc1ccncc1)C1CC1` was tested, and the “% Inhibition” value was -16% and the Z score was 2.56.
For `Cc1cc(C)cc(NC(=O)c2ncoc2-c2ccco2)c1`, the “% Inhibition” value was -10% and the Z score was 1.01.
In the case of `O=C(NCCn1cc(-c2ccoc2)cn1)c1ccncc1`, the “% Inhibition” value is reported as -8% and the Z score is reported as 1.45.
With `O=C(O)CN1CCCC[C@H](N2CCN(c3cccc(Cl)c3)CC2)C1=O` the “% Inhibition” value was 5% and the Z score was -0.44.
With `CN1CCN(C)[C@@H](CC(=O)N2CC(Oc3ccccc3F)C2)C1` the “% Inhibition” value was -8% and the Z score was 1.06.
In the case of `CC(C)c1cc(C(=O)N2CCC3(CC[C@H](CNC(=O)c4ccco4)O3)CC2)nc(N)n1`, the “% Inhibition” value is reported as 2% and the Z score is reported as -0.5.
In the case of `Cn1nc(CN(Cc2ccco2)C(=O)c2ccc(F)c(F)c2)c2c1CCC2`, the “% Inhibition” value is reported as 3% and the Z score is reported as -0.64.
For `COc1ccc2c(c1)CN(Cc1ccccc1Cl)CC[C@H]1COC(=O)N21`, the “% Inhibition” value was 28% and the Z score was -2.08.
With `Cc1cc2ccccc2n1CC(=O)N1C[C@@H]2[C@H](C1)[C@H]2NC(=O)C1CCN(C)C1=O` (stereo not given in full) the “% Inhibition” value was -6% and the Z score was 1.09.
For `Cc1n[nH]c(C)c1CNC(=O)N1CCN(CC(F)(F)F)[C@@H](C)C1`, the “% Inhibition” value was -2% and the Z score was 0.39.
For `Cc1cc(C(=O)N2CCC3(CC2)CC3(F)F)c(C)o1`, the “% Inhibition” value was -16% and the Z score was 3.24.
For `c1ccc(-n2nc(C3CC3)nc2-c2n[nH]c3c2CCC3)cc1`, the “% Inhibition” value was 7% and the Z score was -0.81.
For `COc1cc(OC)cc([C@@H](CC(=O)NCC(C)C)c2cn(Cc3ccccc3)c3ccccc23)c1`, the “% Inhibition” value was -7% and the Z score was 0.91.
`Cc1ccsc1C(=O)N1CCCn2nc(-c3ccncc3)cc2C1` was tested, and the “% Inhibition” value was -20% and the Z score was 1.74.
`Cc1ccc(CC(=O)N(C)C[C@H](C)O)cc1O` was tested, and the “% Inhibition” value was 5% and the Z score was -0.74.
In the case of `Cc1cc(NC(=O)c2cccc(-n3ccnn3)c2)nc(=O)[nH]1`, the “% Inhibition” value is reported as -14% and the Z score is reported as 2.12.
In the case of `CC(NC(=O)C1CCC1)C1CC2CCC1C2` (stereo not given), the “% Inhibition” value is reported as -12% and the Z score is reported as 1.45.
For `Cc1cc(=O)[nH]c(NCCNC(=O)NCc2cc(C3CC3)[nH]n2)n1`, the “% Inhibition” value was 4% and the Z score was -0.7.
With `C[C@@H](c1cc2ccccc2[nH]1)N(C)C(=O)c1cnn2c1CCCC2` the “% Inhibition” value was -30% and the Z score was 3.78.
`Cc1csc(N(C(=O)CCn2nc(C)cc2C)C2CC2)n1` was tested, and the “% Inhibition” value was -15% and the Z score was 2.16.
`O=C1[C@@H]2CCCN2S(=O)(=O)N1Cc1ccccc1` was tested, and the “% Inhibition” value was -7% and the Z score was 1.11.
With `C#CCOC(=O)c1ccc2cc[nH]c2n1` the “% Inhibition” value was -5% and the Z score was 0.77.
`Fc1ccc(-c2nn(-c3ccccc3)cc2C=Cc2ccccn2)cc1` was tested, and the “% Inhibition” value was -7% and the Z score was 0.76.
`CCn1cc(S(=O)(=O)NC(=O)c2cccn2C2CCCC2)cn1` was tested, and the “% Inhibition” value was -12% and the Z score was 1.68.
With `O=S(=O)(c1ccc(F)c(F)c1)N1CCCN([C@H]2CCOC2)CC1` the “% Inhibition” value was -14% and the Z score was 2.38.
In the case of `O=C(c1ccoc1)N1CCC(CCOc2ccccc2F)CC1`, the “% Inhibition” value is reported as -1% and the Z score is reported as 0.12.
In the case of `Cc1ccc([C@@H](C)CCN(C)Cc2cc[nH]n2)o1`, the “% Inhibition” value is reported as -7% and the Z score is reported as 1.
`Cc1nnc2n1C[C@@H](NC(=O)Nc1cccc(CN3CCCCC3=O)c1)CC2` was tested, and the “% Inhibition” value was 22% and the Z score was -2.88.
For `Cn1c(Cn2cccn2)nnc1C1CCN(c2nccc(N)n2)CC1`, the “% Inhibition” value was -3% and the Z score was 0.55.
In the case of `Cc1ccc(-c2nccn3cc(C(=O)NCc4ccccn4)nc23)cc1`, the “% Inhibition” value is reported as -11% and the Z score is reported as 1.59.
